Here are results for three molecules from article PMC3709894.

These are yes or no findings as the source states them, for the method shown. Binding seen in cells or lysates may run through a third protein. Some binding calls cover weakened binding; strength is not graded here. For some assays here: Tags and fused reporters may be left off the sequences shown.

Test [1] addresses T1, middle part (173–450 aa) of Rad21 (Rad21 MP), expressed in 293 T cells (human) (UniProt O60216).
T1 sequence: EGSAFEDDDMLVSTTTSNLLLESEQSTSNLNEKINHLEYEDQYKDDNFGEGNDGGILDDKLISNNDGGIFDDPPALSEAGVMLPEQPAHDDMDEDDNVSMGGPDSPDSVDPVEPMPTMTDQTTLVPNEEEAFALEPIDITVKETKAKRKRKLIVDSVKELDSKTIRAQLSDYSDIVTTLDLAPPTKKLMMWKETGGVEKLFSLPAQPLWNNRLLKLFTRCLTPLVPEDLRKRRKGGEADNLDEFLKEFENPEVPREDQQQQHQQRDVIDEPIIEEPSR
The experiment in a line: co-IP; 293 T cells transfected with differently tagged (Flag, HA) Rad21 NT, MP or CT fragments; IP from cell lysates 40 h after transfection; blots of the other copy and of endogenous proteins.

Test [2] concerns the target T2, N-terminal fragment (1–172 aa) of Rad21 (Rad21 NT), expressed in 293 T cells (human) (UniProt O60216).
T2 sequence: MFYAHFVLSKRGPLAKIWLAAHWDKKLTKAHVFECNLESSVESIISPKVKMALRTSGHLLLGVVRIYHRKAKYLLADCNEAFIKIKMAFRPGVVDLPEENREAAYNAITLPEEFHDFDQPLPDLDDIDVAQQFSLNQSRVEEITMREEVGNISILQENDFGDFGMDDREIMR
The test is described as above.

The target in test [3] is T3, Myc-Rad21 Del (del(383–392 aa)) in pCS2MT (human) (UniProt O60216).
T3 sequence: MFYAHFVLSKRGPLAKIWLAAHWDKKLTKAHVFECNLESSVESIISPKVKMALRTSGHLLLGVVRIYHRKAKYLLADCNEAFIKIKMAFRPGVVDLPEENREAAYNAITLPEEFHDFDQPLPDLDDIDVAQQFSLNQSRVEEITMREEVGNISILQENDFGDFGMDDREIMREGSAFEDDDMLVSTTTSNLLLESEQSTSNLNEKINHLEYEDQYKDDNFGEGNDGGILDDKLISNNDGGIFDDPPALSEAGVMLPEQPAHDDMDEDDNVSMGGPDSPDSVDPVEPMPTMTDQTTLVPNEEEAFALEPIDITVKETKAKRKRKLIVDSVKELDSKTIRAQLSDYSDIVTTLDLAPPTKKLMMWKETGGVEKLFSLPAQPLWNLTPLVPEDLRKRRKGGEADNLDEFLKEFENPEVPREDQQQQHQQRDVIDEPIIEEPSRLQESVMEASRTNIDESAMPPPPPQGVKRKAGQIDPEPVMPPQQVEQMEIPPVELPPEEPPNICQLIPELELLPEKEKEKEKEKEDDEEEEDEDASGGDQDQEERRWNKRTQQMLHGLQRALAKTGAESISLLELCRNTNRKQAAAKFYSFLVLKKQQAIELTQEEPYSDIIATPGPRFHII
The experiment in a line: co-IP; 293 T cells transfected with Myc-Rad21 WT or mutants; IP from whole cell lysate, blots of endogenous cohesin subunits including endogenous Rad21.

The target in test [4] is T4, Myc-Rad21 TM (L385A F389A T390A) in pCS2MT (human) (UniProt O60216).
T4 sequence: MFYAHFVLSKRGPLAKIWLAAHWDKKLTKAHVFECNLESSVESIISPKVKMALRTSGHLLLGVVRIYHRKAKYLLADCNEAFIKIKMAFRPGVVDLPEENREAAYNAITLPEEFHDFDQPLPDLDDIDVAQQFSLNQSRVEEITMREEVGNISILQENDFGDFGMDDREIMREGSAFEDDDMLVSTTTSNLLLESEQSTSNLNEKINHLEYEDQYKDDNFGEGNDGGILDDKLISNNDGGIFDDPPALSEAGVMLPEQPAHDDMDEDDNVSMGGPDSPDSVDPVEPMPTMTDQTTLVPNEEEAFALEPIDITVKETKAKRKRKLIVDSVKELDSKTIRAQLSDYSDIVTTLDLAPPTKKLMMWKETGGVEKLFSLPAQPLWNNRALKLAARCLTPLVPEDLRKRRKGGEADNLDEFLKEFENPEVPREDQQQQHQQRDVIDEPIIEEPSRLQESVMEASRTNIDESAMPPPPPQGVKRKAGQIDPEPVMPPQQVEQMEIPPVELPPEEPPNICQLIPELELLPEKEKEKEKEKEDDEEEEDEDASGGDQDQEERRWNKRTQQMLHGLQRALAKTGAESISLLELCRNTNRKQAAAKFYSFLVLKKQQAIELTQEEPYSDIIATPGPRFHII
The test is described as above.

The target in test [5] is T5, Flag-Rad21 triple mutant (TM) L385A F389A T390A (human) (UniProt O60216).
T5 sequence: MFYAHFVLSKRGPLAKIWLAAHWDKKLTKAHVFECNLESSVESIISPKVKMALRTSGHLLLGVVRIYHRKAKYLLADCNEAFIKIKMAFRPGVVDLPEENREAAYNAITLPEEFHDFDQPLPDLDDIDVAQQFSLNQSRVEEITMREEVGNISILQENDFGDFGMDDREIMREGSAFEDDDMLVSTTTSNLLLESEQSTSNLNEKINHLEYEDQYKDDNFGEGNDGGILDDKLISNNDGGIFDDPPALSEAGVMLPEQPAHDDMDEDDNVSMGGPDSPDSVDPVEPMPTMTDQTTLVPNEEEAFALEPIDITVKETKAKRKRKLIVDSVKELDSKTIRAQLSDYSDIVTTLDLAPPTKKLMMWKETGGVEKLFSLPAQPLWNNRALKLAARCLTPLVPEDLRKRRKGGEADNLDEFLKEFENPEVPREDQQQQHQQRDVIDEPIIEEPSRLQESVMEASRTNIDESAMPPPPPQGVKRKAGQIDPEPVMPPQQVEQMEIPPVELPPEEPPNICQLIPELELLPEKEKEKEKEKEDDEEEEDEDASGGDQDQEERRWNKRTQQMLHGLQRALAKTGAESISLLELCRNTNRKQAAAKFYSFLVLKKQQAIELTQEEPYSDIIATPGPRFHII
The experiment in a line: co-IP; 293 T cells transfected with pFlag CMV2 Rad21 constructs; IP of Flag-Rad21 (Flag mAb agarose beads) from whole cell lysate, blots of endogenous cohesin subunits and associated proteins.

Test [6] has as its target T6, Flag-Rad21 WT (full length) in pFlag CMV2 (human) (UniProt O60216).
T6 sequence: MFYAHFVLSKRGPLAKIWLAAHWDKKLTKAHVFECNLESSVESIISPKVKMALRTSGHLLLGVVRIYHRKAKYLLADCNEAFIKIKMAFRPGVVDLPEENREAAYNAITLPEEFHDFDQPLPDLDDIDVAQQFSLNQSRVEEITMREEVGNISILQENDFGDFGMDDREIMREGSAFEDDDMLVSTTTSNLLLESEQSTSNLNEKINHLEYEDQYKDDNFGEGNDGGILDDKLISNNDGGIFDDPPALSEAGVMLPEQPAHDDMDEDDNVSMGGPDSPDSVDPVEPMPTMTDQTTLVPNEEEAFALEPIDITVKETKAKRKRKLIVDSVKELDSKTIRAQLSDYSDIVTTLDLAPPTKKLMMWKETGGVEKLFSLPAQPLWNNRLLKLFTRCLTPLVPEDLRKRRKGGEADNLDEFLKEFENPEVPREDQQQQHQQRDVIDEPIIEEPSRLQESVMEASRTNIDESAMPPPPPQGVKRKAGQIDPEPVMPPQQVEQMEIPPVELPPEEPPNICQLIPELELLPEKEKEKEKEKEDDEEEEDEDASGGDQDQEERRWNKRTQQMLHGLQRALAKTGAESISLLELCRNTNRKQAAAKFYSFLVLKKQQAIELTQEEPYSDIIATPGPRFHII
The description is as above.

The target of test [7] is T7, Flag-Rad21 Del(383–392 aa), full length devoid of 383–392 aa (human) (UniProt O60216).
T7 sequence: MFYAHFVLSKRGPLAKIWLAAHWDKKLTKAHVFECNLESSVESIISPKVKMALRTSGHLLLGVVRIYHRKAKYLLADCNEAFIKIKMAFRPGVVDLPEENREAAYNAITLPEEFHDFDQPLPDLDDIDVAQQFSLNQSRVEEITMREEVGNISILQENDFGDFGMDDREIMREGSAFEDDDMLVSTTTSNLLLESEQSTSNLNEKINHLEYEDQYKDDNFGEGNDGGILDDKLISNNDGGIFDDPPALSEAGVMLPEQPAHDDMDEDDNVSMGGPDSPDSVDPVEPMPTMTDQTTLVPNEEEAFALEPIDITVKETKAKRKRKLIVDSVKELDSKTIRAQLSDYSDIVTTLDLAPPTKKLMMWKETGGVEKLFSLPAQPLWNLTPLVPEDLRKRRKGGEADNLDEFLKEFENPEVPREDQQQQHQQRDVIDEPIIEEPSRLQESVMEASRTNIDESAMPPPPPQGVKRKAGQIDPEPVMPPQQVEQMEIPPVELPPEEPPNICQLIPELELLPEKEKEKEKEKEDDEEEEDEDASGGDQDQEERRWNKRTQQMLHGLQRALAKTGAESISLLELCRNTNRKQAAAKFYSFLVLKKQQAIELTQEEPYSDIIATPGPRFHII
The test is described as above.

For test [8], the target named is T8, C-terminal fragment (451–631 aa) of Rad21 (Rad21 CT), expressed in 293 T cells (human) (UniProt O60216).
T8 sequence: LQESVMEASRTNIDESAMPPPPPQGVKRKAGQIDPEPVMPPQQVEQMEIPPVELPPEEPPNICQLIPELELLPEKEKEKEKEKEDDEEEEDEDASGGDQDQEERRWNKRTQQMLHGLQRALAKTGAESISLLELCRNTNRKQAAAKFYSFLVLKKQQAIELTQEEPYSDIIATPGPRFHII
The experiment in a line: co-IP; 293 T cells transfected with differently tagged (Flag, HA) Rad21 NT, MP or CT fragments; IP from cell lysates 40 h after transfection; blots of the other copy and of endogenous proteins.

B1: endogenous Rad21 (protein, UniProt O60216 1-631)
chain: MFYAHFVLSKRGPLAKIWLAAHWDKKLTKAHVFECNLESSVESIISPKVKMALRTSGHLLLGVVRIYHRKAKYLLADCNEAFIKIKMAFRPGVVDLPEENREAAYNAITLPEEFHDFDQPLPDLDDIDVAQQFSLNQSRVEEITMREEVGNISILQENDFGDFGMDDREIMREGSAFEDDDMLVSTTTSNLLLESEQSTSNLNEKINHLEYEDQYKDDNFGEGNDGGILDDKLISNNDGGIFDDPPALSEAGVMLPEQPAHDDMDEDDNVSMGGPDSPDSVDPVEPMPTMTDQTTLVPNEEEAFALEPIDITVKETKAKRKRKLIVDSVKELDSKTIRAQLSDYSDIVTTLDLAPPTKKLMMWKETGGVEKLFSLPAQPLWNNRLLKLFTRCLTPLVPEDLRKRRKGGEADNLDEFLKEFENPEVPREDQQQQHQQRDVIDEPIIEEPSRLQESVMEASRTNIDESAMPPPPPQGVKRKAGQIDPEPVMPPQQVEQMEIPPVELPPEEPPNICQLIPELELLPEKEKEKEKEKEDDEEEEDEDASGGDQDQEERRWNKRTQQMLHGLQRALAKTGAESISLLELCRNTNRKQAAAKFYSFLVLKKQQAIELTQEEPYSDIIATPGPRFHII
Regarding B1, the binding result is “no binding” in test [1], “binds” in test [2], “binds” in test [3] and “binds” in test [4].

B2: endogenous Wapl (protein, UniProt Q7Z5K2 1-1190)
chain: MTSRFGKTYSRKGGNGSSKFDEVFSNKRTTLSTKWGETTFMAKLGQKRPNFKPDIQEIPKKPKVEEESTGDPFGFDSDDESLPVSSKNLAQVKCSSYSESSEAAQLEEVTSVLEANSKISHVVVEDTVVSDKCFPLEDTLLGKEKSTNRIVEDDASISSCNKLITSDKVENFHEEHEKNSHHIHKNADDSTKKPNAETTVASEIKETNDTWNSQFGKRPESPSEISPIKGSVRTGLFEWDNDFEDIRSEDCILSLDSDPLLEMKDDDFKNRLENLNEAIEEDIVQSVLRPTNCRTYCRANKTKSSQGASNFDKLMDGTSQALAKANSESSKDGLNQAKKGGVSCGTSFRGTVGRTRDYTVLHPSCLSVCNVTIQDTMERSMDEFTASTPADLGEAGRLRKKADIATSKTTTRFRPSNTKSKKDVKLEFFGFEDHETGGDEGGSGSSNYKIKYFGFDDLSESEDDEDDDCQVERKTSKKRTKTAPSPSLQPPPESNDNSQDSQSGTNNAENLDFTEDLPGVPESVKKPINKQGDKSKENTRKIFSGPKRSPTKAVYNARHWNHPDSEELPGPPVVKPQSVTVRLSSKEPNQKDDGVFKAPAPPSKVIKTVTIPTQPYQDIVTALKCRREDKELYTVVQHVKHFNDVVEFGENQEFTDDIEYLLSGLKSTQPLNTRCLSVISLATKCAMPSFRMHLRAHGMVAMVFKTLDDSQHHQNLSLCTAALMYILSRDRLNMDLDRASLDLMIRLLELEQDASSAKLLNEKDMNKIKEKIRRLCETVHNKHLDLENITTGHLAMETLLSLTSKRAGDWFKEELRLLGGLDHIVDKVKECVDHLSRDEDEEKLVASLWGAERCLRVLESVTVHNPENQSYLIAYKDSQLIVSSAKALQHCEELIQQYNRAEDSICLADSKPLPHQNVTNHVGKAVEDCMRAIIGVLLNLTNDNEWGSTKTGEQDGLIGTALNCVLQVPKYLPQEQRFDIRVLGLGLLINLVEYSARNRHCLVNMETSCSFDSSICSGEGDDSLRIGGQVHAVQALVQLFLERERAAQLAESKTDELIKDAPTTQHDKSGEWQETSGEIQWVSTEKTDGTEEKHKKEEEDEELDLNKALQHAGKHMEDCIVASYTALLLGCLCQESPINVTTVREYLPEGDFSIMTEMLKKFLSFMNLTCAVGTTGQKSISRVIEYLEHC
With B2, the binding result in test [5], in test [6] and in test [7] was “binds” in each case.

B3: C-terminal fragment (451–631 aa) of Rad21 (Rad21 CT), expressed in 293 T cells (domain or fragment, UniProt O60216 451-631)
chain: LQESVMEASRTNIDESAMPPPPPQGVKRKAGQIDPEPVMPPQQVEQMEIPPVELPPEEPPNICQLIPELELLPEKEKEKEKEKEDDEEEEDEDASGGDQDQEERRWNKRTQQMLHGLQRALAKTGAESISLLELCRNTNRKQAAAKFYSFLVLKKQQAIELTQEEPYSDIIATPGPRFHII
Regarding B3, the binding entry in test [8] is reported as “no binding”.
